# Measured values taken from the supplement of paper PMC12297408.
# Counter-ions that a name gives are not always drawn. Out of some 1,300 compounds screened, about 40 (3%) showed activity. This is one part of the list.
# Tested on: Plasmodium falciparum NF54/iGP1_RE9H ulg8 stage V gametocytes
# Assay: gametocyte viability (luciferase signal relative to DMSO control) (% of DMSO control); higher = less gametocytocidal activity, active = 50 or less
# Details: exposure time: 72 h
# Outline: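 In 96-well plates holding nanolitre spots of compound (10 mM DMSO stocks), NF54/iGP1_RE9Hulg8 stage V gametocytes from day 12 were added at ~2.5% gametocytemia and 3% hematocrit in medium with 0.5% Albumax II, giving single wells at 10 µM or 1 µM. Incubation lasted 72 h at 37 °C. Each 90 µl sample then received 10 µl D-luciferin (30 mg/ml) before luminescence reading on an IVIS Lumina II, and viability was normalized to the mean of DMSO vehicle wells on the same plate.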
SMILES,gametocyte viability (concentration: 1 µM),gametocyte viability (concentration: 10 µM)
Cc1cn[nH]c1 [Fomepizole],inactive: 81.6,inactive: 85.7
OC(Cn1cncn1)(Cn1cncn1)c1ccc(F)cc1F [Fluconazole],inactive: 83.4,inactive: 86.9
CCCOc1cc(N)ccc1C(=O)OCCN(CC)CC [Propoxycaine hydrochloride],inactive: 95.8,inactive: 89.7
NCCc1c[nH]cn1 [Histamine dihydrochloride],inactive: 90.3,inactive: 91.8
CC[N+](C)(C)c1cccc(O)c1 [Edrophonium chloride],inactive: 92.2,inactive: 97.2
C=CC(N)CCC(=O)O (centres undefined) [Vigabatrin],inactive: 84.9,inactive: 90.6
NS(=O)(=O)c1cc(C2(O)NC(=O)c3ccccc32)ccc1Cl (centres undefined) [Chlorthalidone],inactive: 86.4,inactive: 84.7
CCN[C@H]1CN(CCCOC)S(=O)(=O)c2sc(S(N)(=O)=O)cc21 [Brinzolamide],inactive: 85.8,inactive: 89.1
CC(=O)OCC(=O)[C@@]1(O)CC[C@H]2[C@@H]3CCC4=CC(=O)CC[C@]4(C)[C@H]3[C@@H](O)C[C@@]21C [Cortisol acetate],inactive: 81.7,inactive: 80.4
Cc1ncc(C[n+]2csc(CCO)c2C)c(N)n1 [Thiamine hydrochloride],inactive: 94,inactive: 89.4
CC(C)c1c(C(=O)Nc2ccccc2)c(-c2ccccc2)c(-c2ccc(F)cc2)n1CC[C@@H](O)C[C@@H](O)CC(=O)O [Atorvastatin],inactive: 84.1,inactive: 64.5
CCCCN(CCCC)CCCOC(=O)c1ccc(N)cc1 [Butacaine],inactive: 81.8,inactive: 91.1
Cc1ccc(C(=O)c2ccc(CC(=O)O)n2C)cc1 [Tolmetin sodium salt dihydrate],inactive: 87.3,inactive: 81.2
COC(=O)Nc1nc2cc(C(=O)c3cccs3)ccc2[nH]1 [Nocodazole],inactive: 89.3,inactive: 91.1
CC[N+](C)(CC)CCOC(=O)C1c2ccccc2Oc2ccccc21 [Methantheline bromide],inactive: 83.4,inactive: 83.2
CC(=O)OCC(=O)[C@@]1(O)CC[C@H]2[C@@H]3CCC4=CC(=O)CC[C@]4(C)[C@@]3(F)[C@@H](O)C[C@@]21C [Fludrocortisone acetate],inactive: 79.5,inactive: 75.8
NNCCc1ccccc1 [Phenelzine sulfate],inactive: 94.3,inactive: 93.4
CCCc1cc(C(N)=S)ccn1 [Prothionamide],inactive: 93.7,inactive: 95.2
CC(=O)S[C@@H]1CC2=CC(=O)CC[C@]2(C)[C@H]2CC[C@@]3(C)[C@@H](CC[C@@]34CCC(=O)O4)[C@H]12 [Spironolactone],inactive: 87.2,inactive: 78.8

SMILES,gametocyte viability (concentration: 1 µM),gametocyte viability (concentration: 10 µM)
CC(Cc1cccc(C(F)(F)F)c1)NCCOC(=O)c1ccccc1 (centres undefined) [Benfluorex hydrochloride],inactive: 80.9,inactive: 68.9
CN1CCC(=C2c3ccccc3C=Cc3ccccc32)CC1 [Cyproheptadine hydrochloride],inactive: 94.8,inactive: 92.4
N=C(N)NC(=N)NCCc1ccccc1 [Phenformin hydrochloride],inactive: 83.8,inactive: 83.6
CC(C)(C)NC[C@@H](O)COc1cccc2c1CCCC2=O [(+) -Levobunolol hydrochloride],inactive: 84.8,inactive: 88.1
CO[C@H]1/C=C/O[C@@]2(C)Oc3c(C)c(O)c4c(O)c(c(/C=N/N5CCN(C6CCCC6)CC5)c(O)c4c3C2=O)NC(=O)/C(C)=C\C=C\[C@H](C)[C@H](O)[C@@H](C)[C@@H](O)[C@@H](C)[C@H](OC(C)=O)[C@@H]1C [Rifapentine],inactive: 84.3,inactive: 78.7
CN(C)[C@@H]1C(=O)C(C(=O)NCNCCCC[C@H](N)C(=O)O)=C(O)[C@@]2(O)C(=O)C3=C(O)c4c(O)cccc4[C@@](C)(O)[C@H]3C[C@@H]12 [Lymecycline],inactive: 88.7,inactive: 84.6
C=C(CC)C(=O)c1ccc(OCC(=O)O)c(Cl)c1Cl [Ethacrynic acid],inactive: 90.4,inactive: 92.5
Nc1ccc(S(=O)(=O)NC(=O)c2ccccc2)cc1 [Sulfabenzamide],inactive: 78.6,inactive: 83.9
CS(=O)(=O)c1ccc([C@@H](O)[C@@H](CF)NC(=O)C(Cl)Cl)cc1 [Florfenicol],inactive: 90.7,inactive: 95.9
CCN(CC)CCCC(C)Nc1ccnc2cc(Cl)ccc12 (centres undefined) [Chloroquine diphosphate],inactive: 82.8,inactive: 86.8
CC(C)(C)C(=O)OCOC(=O)[C@@H]1N2C(=O)[C@@H](/N=C/N3CCCCCC3)[C@H]2SC1(C)C [Pivmecillinam hydrochloride],inactive: 83.3,inactive: 83.2
CNc1ncnc2c1ncn2[C@@H]1O[C@H](CO)[C@@H](O)[C@H]1O [N6-methyladenosine],inactive: 79.6,inactive: 91.4
"OCC(O)CN1CCN(c2ccccc2)CC1 (racemic) [Dropropizine (R,S)]",inactive: 99.6,inactive: 102
c1ccc2c(c1)CCCC2C1=NCCN1 (centres undefined) [Tetrahydrozoline hydrochloride],inactive: 93.3,inactive: 84.7
C[C@@H](O)[C@H]1C(=O)N2C(C(=O)O)=C(SCCNC=N)C[C@H]12 [Imipenem],inactive: 88.8,inactive: 87.5
CCCCCN(C)CCC(O)(P(=O)(O)O)P(=O)(O)O [Ibandronate sodium],inactive: 87.2,inactive: 87.1
C1N2CN3CN1CN(C2)C3 [Methenamine],inactive: 86.3,inactive: 83.8
O=C1NCCN1c1ncc([N+](=O)[O-])s1 [Niridazole],inactive: 93.4,inactive: 96.6
CC(=O)OCC(=O)NCCCOc1cccc(CN2CCCCC2)c1 [Roxatidine Acetate HCl],inactive: 82.7,inactive: 88.1

SMILES,gametocyte viability (concentration: 1 µM),gametocyte viability (concentration: 10 µM)
CCn1cc(C(=O)O)c(=O)c2cc(F)c(N3CCNCC3)nc21 [Enoxacin],inactive: 94.5,inactive: 91.3
CC(C(=O)O)c1cccc(Oc2ccccc2)c1 (centres undefined) [Fenoprofen calcium salt dihydrate],inactive: 91.7,inactive: 91.8
Oc1ccc(C2CNCCc3c2cc(O)c(O)c3Cl)cc1 (centres undefined) [Fenoldopam],inactive: 96.3,inactive: 93.1
CCCc1ncc(C[n+]2ccccc2C)c(N)n1 [Amprolium hydrochloride],inactive: 82.2,inactive: 89.3
CO[C@H]1/C=C/O[C@@]2(C)Oc3c(C)c(O)c4c(O)c(c(/C=N/N5CCN(C)CC5)c(O)c4c3C2=O)NC(=O)/C(C)=C\C=C\[C@H](C)[C@H](O)[C@@H](C)[C@@H](O)[C@@H](C)[C@H](OC(C)=O)[C@@H]1C [Rifampicin],inactive: 87.6,inactive: 84.6
CC=C(C)C(=O)OC1C(OC(C)=O)C2(CO)C(O)CC3(C)C(=CCC4C5(C)CCC(OC6OC(C(=O)O)C(OC7OC(CO)C(O)C(O)C7O)C(O)C6OC6OC(CO)C(O)C(O)C6O)C(C)(CO)C5CCC43C)C2CC1(C)C (stereo not drawn) [Beta-Escin],inactive: 90.1,inactive: 93.2
Cc1c(Cl)cccc1Nc1ccccc1C(=O)O [Tolfenamic acid],inactive: 83.6,inactive: 90.8
CCCSc1ccc2[nH]c(NC(=O)OC)nc2c1 [Albendazole],inactive: 93,inactive: 102
Cc1ccc(N(CC2=NCCN2)c2cccc(O)c2)cc1 [Phentolamine hydrochloride],inactive: 99,inactive: 98.9
CCc1ccc(CCOc2ccc(CC3SC(=O)NC3=O)cc2)nc1 (centres undefined) [Pioglitazone],inactive: 86,inactive: 88.2
c1ccc(CC2=NCCN2)cc1 [Tolazoline hydrochloride],inactive: 89.1,inactive: 86.3
CC(C)(Oc1ccc(CCNC(=O)c2ccc(Cl)cc2)cc1)C(=O)O [Bezafibrate],inactive: 98.6,inactive: 97
OCCN1CCN(CCCN2c3ccccc3Sc3ccc(C(F)(F)F)cc32)CC1 [Fluphenazine dihydrochloride],inactive: 89.1,inactive: 68.1
O=C(O)CCc1nc(-c2ccccc2)c(-c2ccccc2)o1 [Oxaprozin],inactive: 87.7,inactive: 88.5
O=C1c2ccccc2C(=O)C1c1ccccc1 [Phenindione],inactive: 97.4,inactive: 97.6
Clc1ccc2c(c1)C(N1CCNCC1)=Nc1ccccc1O2 [Amoxapine],inactive: 81.3,inactive: 83.6
CC[C@H]1OC(=O)[C@H](C)[C@@H](O[C@H]2C[C@@](C)(OC)[C@@H](O)[C@H](C)O2)[C@H](C)[C@@H](O[C@@H]2O[C@H](C)C[C@H](N(C)C)[C@H]2O)[C@](C)(O)C[C@@H](C)C(=O)[C@H](C)[C@@H](O)[C@]1(C)O [Erythromycin],inactive: 85.4,inactive: 87.6
CCOC(=O)N1CCC(=C2c3ccc(Cl)cc3CCc3cccnc32)CC1 [Loratadine],inactive: 86,inactive: 87.7
COc1ccc(CC(C)NCC(O)c2ccc(O)c(NC=O)c2)cc1 (centres undefined) [Formoterol fumarate],inactive: 84.3,inactive: 85.1
